The other results are listed elsewhere or left out.
B1: PhoQ; a variant is named by its letters at X, in order, P23837 (parent)
chain: MKKLLRLFFPLSLRVRFLLATAAVVLVLSLAYGMVALIGYSVSFDKTTFRLLRGESNLFYTLAKWENNKLHVELPENIDKQSPTMTLIYDENGQLLWAQRDVPWLMKMIQPDWLKSNGFHEIEADVNDTSLLLSGDHSIQQQLQEVREDDDDAEMTHSVAVNVYPATSRMPKLTIVVVDTIPVELKSSYMVWSWFIYVLSANLLLVIPLLWVAAWWSLRPIEALAKEVRELEEHNRELLNPATTRELTSLVRNLNRLLKSERERYDKYRTTLTDLTHSLKTPLXXLQXXLRSLRSEKMSVSDAEPVMLEQISRISQQIGYYLHRASMRGGTLLSRELHPVAPLLDNLTSALNKVYQRKGVNISLDISPEISFVGEQNDFVEVMGNVLDNACKYCLEFVEISARQTDEHLYIVVEDDGPGIPLSKREVIFDRGQRVDTLRPGQGVGLAVAREITEQYEGKIVAGESMLGGARMEVIFGRQHSAPKDE

Variants of: B1
Test: enrichment ratio after two sorts for PhoP signalling (ratio (wild type AVST 3.29)); higher = more functional
Conditions: with PhoP (E. coli)

Variant	enrichment ratio
SLQQ	≤ 0.25
WDMS	≤ 0.25
RDNP	≤ 0.25
IIDD	≤ 0.25
PGRN	≤ 0.25
YPLT	≤ 0.25
NVVL	≤ 0.25
ISNN	≤ 0.25
QYYN	≤ 0.25
SIWV	≤ 0.25
YHEM	≤ 0.25
SYYI	≤ 0.25
NHKY	≤ 0.25
YNGV	≤ 0.25
NASW	≤ 0.25
VYRP	≤ 0.25
GWCC	≤ 0.25
HCIH	≤ 0.25
FGSD	≤ 0.25
FRKW	≤ 0.25
NINS	≤ 0.25
HWTW	≤ 0.25
YECF	≤ 0.25
WFFN	≤ 0.25
SAGR	≤ 0.25
MRAC	≤ 0.25

Variant	enrichment ratio
NEVL	≤ 0.25
RRLA	≤ 0.25
YYCP	≤ 0.25
SKCA	11.7
AQGH	6.7
AIWQ	4.28
KHFP	≤ 0.25
IFYS	≤ 0.25
HFWC	≤ 0.25
QWGH	≤ 0.25
VWSI	≤ 0.25
SSDE	≤ 0.25
RWIK	≤ 0.25
NKCP	≤ 0.25
WENL	≤ 0.25
KGMQ	≤ 0.25
WSMD	≤ 0.25
MKDK	≤ 0.25
HTFE	≤ 0.25
QCVL	≤ 0.25
IWQI	≤ 0.25
DANR	≤ 0.25
EQQM	≤ 0.25
PWSP	≤ 0.25
WFLS	≤ 0.25
WCWF	≤ 0.25

Variant	enrichment ratio
GRAY	≤ 0.25
TSMQ	13.9
QHAN	≤ 0.25
IPYG	≤ 0.25
RCNQ	1.27
QREQ	≤ 0.25
VIYS	≤ 0.25
MVTN	≤ 0.25
SNHA	≤ 0.25
IPTD	≤ 0.25
AGEW	≤ 0.25
NQYW	≤ 0.25
GPGL	≤ 0.25
EKEM	≤ 0.25
PYRG	≤ 0.25
TMDM	6.03
PEDW	≤ 0.25
MDTG	≤ 0.25
YWAA	≤ 0.25
KKAK	≤ 0.25
TPAT	≤ 0.25
TSTG	7.34
KFET	≤ 0.25
ACST	8.79
SLTT	2.35
GKEY	≤ 0.25

Variant	enrichment ratio
SIHY	≤ 0.25
HELN	≤ 0.25
IHTW	≤ 0.25
NGQW	≤ 0.25
IHWK	≤ 0.25
AAFQ	≤ 0.25
TQDS	≤ 0.25
HQIG	≤ 0.25
RLMW	≤ 0.25
RFCQ	0.982
YDIG	≤ 0.25
SYYG	≤ 0.25
CAFR	≤ 0.25
MSLW	≤ 0.25
DMSV	≤ 0.25
ETNE	≤ 0.25
CFLM	≤ 0.25
GGPH	≤ 0.25
IFAH	≤ 0.25
NQIL	≤ 0.25
AWAH	≤ 0.25
AVQV	≤ 0.25
YRPD	≤ 0.25
KLNL	≤ 0.25
GHGR	≤ 0.25
AMRD	≤ 0.25

Variant	enrichment ratio
WSQC	≤ 0.25
FHAH	≤ 0.25
PAHE	≤ 0.25
LLTL	≤ 0.25
GIWW	≤ 0.25
DFTD	≤ 0.25
LGHF	≤ 0.25
SHHA	≤ 0.25
SSPW	≤ 0.25
LMKH	≤ 0.25
DNMT	≤ 0.25
MIVL	2.51
LMLP	≤ 0.25
EQMI	≤ 0.25
SWIW	≤ 0.25
PPAQ	≤ 0.25
YWMI	≤ 0.25
LWWH	≤ 0.25
YGCK	≤ 0.25
NPKC	≤ 0.25
KNQQ	≤ 0.25
NAPG	≤ 0.25
QYKL	≤ 0.25
FQWR	≤ 0.25
GEML	≤ 0.25
YALE	14.7

Variant	enrichment ratio
RAHW	≤ 0.25
TLTA	10.5
ATDW	≤ 0.25
KPLN	≤ 0.25
FQCR	≤ 0.25
GRIY	≤ 0.25
PRST	≤ 0.25
AMRM	≤ 0.25
AIAY	6.61
HRTM	≤ 0.25
RDMA	≤ 0.25
ANPQ	≤ 0.25
YGYF	≤ 0.25
NIDL	≤ 0.25
AYEK	≤ 0.25
NFAV	≤ 0.25
HDQC	≤ 0.25
GPSI	≤ 0.25
HSEL	≤ 0.25
TKHT	≤ 0.25
GKGI	≤ 0.25
EIPA	≤ 0.25
FISQ	≤ 0.25

— a collection of fitness landscapes (doi:10.1126/science.1257360)
